# Laboratory results reported in the supplement of paper PMC8728848.
# The list shows a part of the results.
# B1: Siglec-9 (Homo sapiens), Q9Y336 (protein)
# chain: MLLLLLPLLWGRERAEGQTSKLLTMQSSVTVQEGLCVHVPCSFSYPSHGWIYPGPVVHGYWFREGANTDQDAPVATNNPARAVWEETRDRFHLLGDPHTKNCTLSIRDARRSDAGRYFFRMEKGSIKWNYKHHRLSVNVTALTHRPNILIPGTLESGCPQNLTCSVPWACEQGTPPMISWIGTSVSPLDPSTTRSSVLTLIPQPQDHGTSLTCQVTFPGASVTTNKTVHLNVSYPPQNLTMTVFQGDGTVSTVLGNGSSLSLPEGQSLRLVCAVDAVDSNPPARLSLSWRGLTLCPSQPSNPGVLELPWVHLRDAAEFTCRAQNPLGSQQVYLNVSLQSKATSGVTQGVVGGAGATALVFLSFCVIFVVVRSCRKKSARPAAGVGDTGIEDANAVRGSASQGPLTEPWAEDSPPDQPPPASARSSVGEGELQYASLSFQMVKPWDSRGQEATDTEYSEIKIHR
# Experiments:
# Assay in all cases: glycan array binding signal (z-score within array); higher = stronger binding
# Conditions in all cases: glycan notation: IUPAC condensed, linker removed
# Fuc(a1-2)Gal = biological target: Fuc(a1-2)Gal
# Method in brief: (§1)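 From the Consortium for Functional Glycomics database, 3228 arrays were curated, keeping only those whose protein sequence was available. Binding is given as a within-array Z-score averaged across arrays sharing a protein sequence and across linkers. Negative Z-scores can be read as non-binding.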
# Fuc(a1-2)Gal(b1-3)GalNAc = biological target: Fuc(a1-2)Gal(b1-3)GalNAc
# Method in brief: as §1
# [1] = biological target: Fuc(a1-2)Gal(b1-3)GalNAc(a1-3)[Fuc(a1-2)]Gal(b1-4)Glc
# Method in brief: as §1
# [2] = biological target: Fuc(a1-2)Gal(b1-3)GalNAc(a1-3)[Fuc(a1-2)]Gal(b1-4)GlcNAc
# Method in brief: as §1
# [3] = biological target: Fuc(a1-2)Gal(b1-3)GalNAc(b1-3)Gal
# Method in brief: as §1
# [4] = biological target: Fuc(a1-2)Gal(b1-3)GalNAc(b1-3)Gal(a1-4)Gal(b1-4)Glc
# Method in brief: as §1
# [5] = biological target: Fuc(a1-2)Gal(b1-3)GalNAc(b1-4)[Neu5Ac(a2-3)]Gal(b1-4)Glc
# Method in brief: as §1
# Fuc(a1-2)Gal(b1-3)GlcNAc = biological target: Fuc(a1-2)Gal(b1-3)GlcNAc
# Method in brief: as §1
# [6] = biological target: Fuc(a1-2)Gal(b1-3)GlcNAc(b1-2)Man(a1-3)[Fuc(a1-2)Gal(b1-3)GlcNAc(b1-2)Man(a1-6)]Man(b1-4)GlcNAc(b1-4)GlcNAc
# Method in brief: as §1
# [7] = biological target: Fuc(a1-2)Gal(b1-3)GlcNAc(b1-2)Man(a1-3)[Fuc(a1-2)Gal(b1-3)GlcNAc(b1-2)Man(a1-6)]Man(b1-4)GlcNAc(b1-4)[Fuc(a1-6)]GlcNAc
# Method in brief: as §1
# [8] = biological target: Fuc(a1-2)Gal(b1-3)GlcNAc(b1-3)Gal(b1-4)Glc
# Method in brief: as §1
# [9] = biological target: Fuc(a1-2)Gal(b1-3)GlcNAc(b1-3)GalNAc
# Method in brief: as §1
# [10] = biological target: Fuc(a1-2)Gal(b1-3)GlcNAc(b1-3)[Fuc(a1-2)Gal(b1-3)GlcNAc(b1-6)]GalNAc
# Method in brief: as §1
# [11] = biological target: Fuc(a1-2)Gal(b1-3)GlcNAc(b1-3)[Gal(b1-4)GlcNAc(b1-6)]Gal(b1-4)Glc
# Method in brief: as §1
# [12] = biological target: Fuc(a1-2)Gal(b1-3)GlcNAc(b1-3)[Neu5Ac(a2-6)Gal(b1-4)GlcNAc(b1-6)]Gal(b1-4)Glc
# Method in brief: as §1
# [13] = biological target: Fuc(a1-2)Gal(b1-3)GlcNAc6S
# Method in brief: as §1
# [14] = biological target: Fuc(a1-2)Gal(b1-3)[Fuc(a1-4)]GlcNAc
# Method in brief: as §1
# [15] = biological target: Fuc(a1-2)Gal(b1-3)[Fuc(a1-4)]GlcNAc(b1-2)Man(a1-3)[Fuc(a1-2)Gal(b1-3)[Fuc(a1-4)]GlcNAc(b1-2)Man(a1-3)]Man(b1-4)GlcNAc(b1-4)GlcNAc
# Method in brief: as §1
# [16] = biological target: Fuc(a1-2)Gal(b1-3)[Fuc(a1-4)]GlcNAc(b1-2)Man(a1-3)[Fuc(a1-2)Gal(b1-3)[Fuc(a1-4)]GlcNAc(b1-2)Man(a1-6)]Man(b1-4)GlcNAc(b1-4)[Fuc(a1-6)]GlcNAc(b1-4)[Fuc(a1-6)]GlcNAc
# Method in brief: as §1
# [17] = biological target: Fuc(a1-2)Gal(b1-3)[Fuc(a1-4)]GlcNAc(b1-3)[Fuc(a1-3)[Gal(b1-4)]GlcNAc(b1-6)]Gal(b1-4)Glc
# Method in brief: as §1
# [18] = biological target: Fuc(a1-2)Gal(b1-3)[Fuc(a1-4)]GlcNAc(b1-3)[Gal(b1-4)GlcNAc(b1-6)]Gal(b1-4)Glc
# Method in brief: as §1
# [19] = biological target: Fuc(a1-2)Gal(b1-4)Fuc(a1-3)]GlcNAc(b1-2)Man(a1-3)[Fuc(a1-2)Gal(b1-4)[Fuc(a1-3)]GlcNAc(b1-2)Man(a1-6)]Man(b1-4)GlcNAc(b1-4)GlcNAc
# Method in brief: as §1
# Fuc(a1-2)Gal(b1-4)Glc = biological target: Fuc(a1-2)Gal(b1-4)Glc
# Method in brief: as §1
# Fuc(a1-2)Gal(b1-4)Glc6S = biological target: Fuc(a1-2)Gal(b1-4)Glc6S
# Method in brief: as §1
# Fuc(a1-2)Gal(b1-4)GlcNAc = biological target: Fuc(a1-2)Gal(b1-4)GlcNAc
# Method in brief: as §1
# [20] = biological target: Fuc(a1-2)Gal(b1-4)GlcNAc(b1-2)Man
# Method in brief: as §1
# [21] = biological target: Fuc(a1-2)Gal(b1-4)GlcNAc(b1-2)Man(a1-3)[Fuc(a1-2)Gal(b1-4)GlcNAc(b1-2)Man(a1-6)]Man(b1-4)GlcNAc(b1-4)GlcNAc
# Method in brief: as §1
# [22] = biological target: Fuc(a1-2)Gal(b1-4)GlcNAc(b1-2)Man(a1-3)[Fuc(a1-2)Gal(b1-4)GlcNAc(b1-2)Man(a1-6)]Man(b1-4)GlcNAc(b1-4)[Fuc(a1-6)]GlcNAc
# Method in brief: as §1
# [23] = biological target: Fuc(a1-2)Gal(b1-4)GlcNAc(b1-2)[Fuc(a1-2)Gal(b1-4)GlcNAc(b1-4)]Man(a1-3)[Fuc(a1-2)Gal(b1-4)GlcNAc(b1-2)Man(a1-6)]Man(b1-4)GlcNAc(b1-4)GlcNAc
# Method in brief: as §1
# [24] = biological target: Fuc(a1-2)Gal(b1-4)GlcNAc(b1-3)Gal(b1-4)GlcNAc
# Method in brief: as §1
# [25] = biological target: Fuc(a1-2)Gal(b1-4)GlcNAc(b1-3)Gal(b1-4)GlcNAc(b1-2)Man(a1-3)[Fuc(a1-2)Gal(b1-4)GlcNAc(b1-3)Gal(b1-4)GlcNAc(b1-2)Man(a1-6)]Man(b1-4)GlcNAc(b1-4)GlcNAc
# Method in brief: as §1
# [26] = biological target: Fuc(a1-2)Gal(b1-4)GlcNAc(b1-3)Gal(b1-4)GlcNAc(b1-3)Gal(b1-4)GlcNAc
# Method in brief: as §1
# [27] = biological target: Fuc(a1-2)Gal(b1-4)GlcNAc(b1-3)GalNAc
# Method in brief: as §1
# [28] = biological target: Fuc(a1-2)Gal(b1-4)GlcNAc(b1-3)[Fuc(a1-2)Gal(b1-4)GlcNAc(b1-6)]GalNAc
# Method in brief: as §1
# [29] = biological target: Fuc(a1-2)Gal(b1-4)GlcNAc(b1-3)[Fuc(a1-3)[Gal(b1-4)]GlcNAc(b1-6)]Gal(b1-4)Glc
# Method in brief: as §1
# [30] = biological target: Fuc(a1-2)Gal(b1-4)GlcNAc(b1-6)GalNAc
# Method in brief: as §1
# [31] = biological target: Fuc(a1-2)Gal(b1-4)GlcNAc6S
# Method in brief: as §1
# [32] = biological target: Fuc(a1-2)Gal(b1-4)[Fuc(a1-3)]GlcNAc
# Method in brief: as §1
# [33] = biological target: Fuc(a1-2)Gal(b1-4)[Fuc(a1-3)]GlcNAc(b1-2)Man(a1-3)[Fuc(a1-2)Gal(b1-4)[Fuc(a1-3)]GlcNAc(b1-2)Man(a1-6)]Man(b1-4)GlcNAc(b1-4)[Fuc(a1-6)]GlcNAc
# Method in brief: as §1
# [34] = biological target: Fuc(a1-2)Gal(b1-4)[Fuc(a1-3)]GlcNAc(b1-2)[Fuc(a1-2)Gal(b1-4)[Fuc(a1-3)]GlcNAc(b1-4)]Man(a1-3)[Fuc(a1-2)Gal(b1-4)[Fuc(a1-3)]GlcNAc(b1-2)Man(a1-6)]Man(b1-4)GlcNAc(b1-4)GlcNAc
# Method in brief: as §1
# [35] = biological target: Fuc(a1-2)Gal(b1-4)[Fuc(a1-3)]GlcNAc(b1-3)Gal(b1-4)[Fuc(a1-3)]GlcNAc
# Method in brief: as §1
# [36] = biological target: Fuc(a1-2)Gal(b1-4)[Fuc(a1-3)]GlcNAc(b1-3)Gal(b1-4)[Fuc(a1-3)]GlcNAc(b1-3)Gal(b1-4)[Fuc(a1-3)]GlcNAc
# Method in brief: as §1
# [37] = biological target: Fuc(a1-2)Gal(b1-4)[Fuc(a1-3)]GlcNAc(b1-3)GalNAc
# Method in brief: as §1
# [38] = biological target: Fuc(a1-2)Gal(b1-4)[Fuc(a1-3)]GlcNAc(b1-3)[Neu5Ac(a2-6)Gal(b1-4)GlcNAc(b1-6)]Gal(b1-4)Glc
# Method in brief: as §1
# [39] = biological target: Fuc(a1-2)Gal3S(b1-4)GlcNAc
# Method in brief: as §1
binder,measurement,setting,value
B1,glycan array binding signal (z-score),Fuc(a1-2)Gal,-0.211
same,glycan array binding signal (z-score),Fuc(a1-2)Gal(b1-3)GalNAc,-0.228
same,glycan array binding signal (z-score),[1],-0.173
same,glycan array binding signal (z-score),[2],-0.35
same,glycan array binding signal (z-score),[3],0.837
same,glycan array binding signal (z-score),[4],-0.4
same,glycan array binding signal (z-score),[5],-0.092
same,glycan array binding signal (z-score),Fuc(a1-2)Gal(b1-3)GlcNAc,-0.16
same,glycan array binding signal (z-score),[6],-0.025
same,glycan array binding signal (z-score),[7],-0.107
same,glycan array binding signal (z-score),[8],-0.098
same,glycan array binding signal (z-score),[9],-0.034
same,glycan array binding signal (z-score),[10],-0.24
same,glycan array binding signal (z-score),[11],-0.118
same,glycan array binding signal (z-score),[12],-0.071
same,glycan array binding signal (z-score),[13],-0.297
same,glycan array binding signal (z-score),[14],-0.057
same,glycan array binding signal (z-score),[15],0.019
same,glycan array binding signal (z-score),[16],-0.04
same,glycan array binding signal (z-score),[17],-0.335
same,glycan array binding signal (z-score),[18],0.027
same,glycan array binding signal (z-score),[19],0.816
same,glycan array binding signal (z-score),Fuc(a1-2)Gal(b1-4)Glc,-0.265
same,glycan array binding signal (z-score),Fuc(a1-2)Gal(b1-4)Glc6S,-0.077
same,glycan array binding signal (z-score),Fuc(a1-2)Gal(b1-4)GlcNAc,-0.154
same,glycan array binding signal (z-score),[20],0.234
same,glycan array binding signal (z-score),[21],0.092
same,glycan array binding signal (z-score),[22],0.045
same,glycan array binding signal (z-score),[23],-0.015
same,glycan array binding signal (z-score),[24],-0.269
same,glycan array binding signal (z-score),[25],0.031
same,glycan array binding signal (z-score),[26],-0.112
same,glycan array binding signal (z-score),[27],-0.13
same,glycan array binding signal (z-score),[28],0.077
same,glycan array binding signal (z-score),[29],-0.338
same,glycan array binding signal (z-score),[30],-0.065
same,glycan array binding signal (z-score),[31],-0.283
same,glycan array binding signal (z-score),[32],-0.153
same,glycan array binding signal (z-score),[33],-0.277
same,glycan array binding signal (z-score),[34],0.117
same,glycan array binding signal (z-score),[35],-0.122
same,glycan array binding signal (z-score),[36],-0.148
same,glycan array binding signal (z-score),[37],-0.186
same,glycan array binding signal (z-score),[38],-0.045
same,glycan array binding signal (z-score),[39],-0.336
